Data: the supplement of paper PMC3334620
The full ranking holds about 33,000 sequences; the median of “E-score (-0.5 to 0.5)” is about -0.036, and the highest 2% start at about 0.37. Some of the results follow.

Biological target: T1, Yer064c (UniProt P40041)
T1 sequence: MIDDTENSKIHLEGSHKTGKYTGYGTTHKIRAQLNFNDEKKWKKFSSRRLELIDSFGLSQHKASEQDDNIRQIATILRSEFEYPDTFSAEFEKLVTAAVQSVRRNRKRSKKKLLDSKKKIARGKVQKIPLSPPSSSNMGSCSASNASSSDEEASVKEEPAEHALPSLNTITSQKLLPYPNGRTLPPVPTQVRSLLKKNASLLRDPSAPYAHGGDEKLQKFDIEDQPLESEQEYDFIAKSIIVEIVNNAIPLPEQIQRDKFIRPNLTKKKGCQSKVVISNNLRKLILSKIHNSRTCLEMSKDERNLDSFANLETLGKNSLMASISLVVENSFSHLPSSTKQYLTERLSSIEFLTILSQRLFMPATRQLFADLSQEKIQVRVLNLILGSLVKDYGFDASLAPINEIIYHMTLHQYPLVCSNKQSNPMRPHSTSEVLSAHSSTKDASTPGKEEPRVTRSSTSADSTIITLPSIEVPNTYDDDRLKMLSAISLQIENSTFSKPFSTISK
Assay: PBM E-score (8-mer binding enrichment) (E-score (-0.5 to 0.5)); higher = stronger / more preferred TF binding; most listed sequences are background and not binding sites
Details: protein concentration: 200 nM; construct: GST-full length
Procedure: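 Universal 'all 10-mer' protein binding microarrays (Agilent AMADID 015681) probed with GST-tagged S. cerevisiae TFs (full-length or DBD) made by in vitro transcription/translation (PURExpress), about 100-200 nM. Bound TF was detected with fluorescent anti-GST. Each ungapped 8-mer (which stands for itself and its reverse complement) is scored by the PBM enrichment score (E-score), a modified Wilcoxon-Mann-Whitney statistic from -0.5 to +0.5, computed with the Universal PBM Analysis Suite. Scale: above 0.35 generally sequence-specific binding.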

Sequence | PBM E-score
GATTTGCA | 0.0161
TATCTCAA | 0.207
AACCGATA | 0.0039
AACTCCTG | 0.0255
AATGGCGA | 0.113
ACACCGTG | -0.109
CCGGTTGC | -0.177
GTGCTTTA | -0.0214
GAGAGCGA | -0.0993
CCTTTGCC | -0.17
AATTCGTA | -0.141
CACACATG | 0.0125
GGTGTGAA | 0.0513
CCTAATAG | -0.154
ACATTAGA | 0.0255
CGTTGCAG | 0.046
GGCTTGAA | 0.00353
CCAACCCG | -0.194
AGACCCTG | -0.0302
AACATGCA | 0.00292
GGTTTTAA | -0.0576
CCTAGCTC | -0.372
TAATCGAA | 0.0261
CAAGATGG | -0.0772

Sequence | PBM E-score
CCACTGCA | -0.0355
AAATGGGA | -0.15
CAAATTGG | -0.0805
GCGAAAAA | 0.0511
AGACGGCC | -0.318
CATCTAAG | -0.142
AGACCTAC | 0.00472
TCGATAAA | 0.0383
CACTTTGG | -0.0471
AGGGGTTA | 0.00933
GCCTTCAC | -0.213
CACGCTGA | -0.00287
CAGCGCAG | 0.0815
AAGACTCG | 0.373
CAAGACCC | -0.227
CCGCGGCG | -0.196
CCAGTGAA | -0.0175
GACGCCTA | -0.173
CTGATCGA | 0.0155
AATACAGC | -0.0906
CGATTGTC | -0.065
CAAAAGCC | -0.227
TCCCCAAA | 0.0692
GAAGGTAC | -0.0812

Sequence | PBM E-score
AGGTCGTG | 0.145
ACTTCATC | -0.022
AGGCCACA | -0.378
GTGGCCCA | -0.262
AGGTAATA | -0.0278
ATCCCTCG | -0.152
GTTTGGTA | 0.133
CCTCACAG | -0.133
GAGGCCAC | -0.319
CGTGATAA | 0.0558
AGTTCACC | 0.0223
ATTCTTCG | -0.00284
AAAGCCTT | -0.174
CTGCATAA | 0.0634
CAATGATA | 0.0669
ATTCGATG | 0.0769
ATCGCTCA | 0.0405
ACAGCCCA | -0.175
ATTTGAGC | 0.0922
CATAGGTA | 0.0277
ATGACATA | 0.132
CGATGCAA | -0.331
CCGACCGG | -0.228
AGTGTGCA | 0.0252

Sequence | PBM E-score
ACGTTGAT | 0.217
CTGGCGGC | -0.153
CAAGACGA | 0.0536
GTAGCGTA | -0.164
TCAATGGA | 0.0976
GAGAACCC | -0.106
ATACTTTG | 0.0464
GGTCGTGA | -0.0505
AATTATCT | -0.106
AGATGCAG | 0.0295
CTCTTATA | 0.116
CAGTGCAC | -0.186
GACCCCAC | -0.0798
AAAAACAC | -0.168
ACCTGACC | -0.13
AAATTGTG | 0.0122
AAGGCTGA | 0.00065
AAGAACAC | -0.0835
AGCACAAC | -0.0948
CTGGTTTC | -0.0697
ACCGAACT | -0.0318
AATCAAAA | 0.219
